# Test results from PubChem BioAssay (NCATS).
# Where “and” joins values, the source holds several entries; their conditions need not be identical. Equal entries are not always repeated. Inconclusive results, whose numbers are uncertain, are shown with a selection of clear calls. For part of these data: A potency beside an inconclusive call is a rough fit, not a confirmed value. Calls of active or inactive are those of the source. Unless noted, the call rests on the fitted dose curve; in most records, active means well fitted curve in the direction sought with a large enough effect; inconclusive means small, poorly fitted or top-dose-only effect, or another doubt; inactive means no such curve, though single readings can be large; an effect the other way counts as inactive or inconclusive.
# What was measured:
# [1] = target: Phospholipid hydroperoxide glutathione peroxidase GPX4 (Homo sapiens) (UniProt P36969); assay: Primary qHTS Assay for Inhibitors of Recombinant Selenoprotein Glutathione Peroxidase 4 (GPX4) (AID 1845192); further: nearly all actives have a fitted effect of over 65% in size
# How it was run: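 NADPH consumption, followed by fluorescence at 340/450 nm between 0 and 15 min, reports GPX4 activity via coupled glutathione reductase (100 nM). Enzyme 200 nM was pre-exposed to compound 30 min; 0.5 mM cumene hydroperoxide and 1 mM GSH served as substrates.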
# [2] = test system: Nanoluciferase (engineered Oplophorus gracilirostris luciferase); assay: Primary Nanoluciferase (NLuc) qHTS assay for identification of artifact compounds. (AID 1845222);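 further: NLuc secreted into diluted conditioned medium of S16 cells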
# How it was run: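 NLuc from S16 cell medium (1:55) plus test compounds, 15 min, room temperature. Luminescence after Nano-Glo (1:100) addition, 5 min.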
# [3] = Primary redox qHTS assay for identification of artifact compounds. (AID 1845223); conditions: Amplex Red/HRP redox cycling with DTT, fluorescence; series mostly up to 53.8 µM
# How it was run: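 Amplex Red (25 uM) and HRP (250 mU/mL) in HBSS, with compounds for 15 min, then 250 uM DTT for 30 min, room temperature, dark. Fluorescence 525/598 nm read; normalized to DMSO and 10 uM DA3003; Hill fit.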
# [4] = target: Cytochrome P450 2D6 (Homo sapiens) (UniProt P10635); assay: Cytochrome P450 family 2 subfamily D member 6 (CYP2D6) small molecule antagonists: luciferase biochemical (cell-free) qHTS assay (AID 1645840; active means well fitted curve in the direction sought with a large enough effect in the repeat runs; inconclusive means weak or mixed curves; inactive means no such curve, though single readings can be large; an effect the other way counts as inactive or inconclusive; further: nearly all actives have a fitted effect of over 55% in size)
# How it was run: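 P450-Glo luminescent screen: recombinant CYP2D6 enzyme–proluciferin substrate mix preincubated with compound 10 min at room temperature, then NADPH regeneration added for 1 h at room temperature. Detection reagent added for 20 min; luciferin light read as relative luminescence units.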
# HeLa = assay: Primary qHTS to identify gynecologic anti-cancer compounds using libraries of approved drugs and bioactive compounds (AID 1345084); conditions: Gynecologic cancer cell panel viability, ATPlite luminescence, 48 h; activity change, negative = cytotoxicity: at 57.5 µM (top of the series); further: nearly all actives have a fitted effect of over 55% in size
# How it was run: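 Five-concentration response, 48 h; readout is ATP-driven luciferase luminescence.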
# [5] = target: Glutathione peroxidase 1 (Homo sapiens) (UniProt P07203); assay: Primary qHTS Assay for Inhibitors of Recombinant Selenoprotein Glutathione Peroxidase 1 (GPX1) (AID 1845191); conditions: activity, negative = inhibition: at 48.8 µM (top of the series); further: nearly all actives have a fitted effect of over 65% in size
# How it was run: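 10 nM GPX1 + cpd, 30 min RT; start w/ 1 mM GSH, 0.5 mM cumene hydroperoxide, 0.5 mM NADPH, 100 nM GR, 0.01% BSA; buffer 50 mM Tris-HCl pH 7.5, 2 mM EDTA, 150 mM NaCl; Fl 340/450, 0 & 15 min.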
# [6] = target: Calcium and integrin-binding protein 1 (Homo sapiens) (UniProt Q99828); assay: Primary qHTS for Identification of Calcium Integrin Binding Protein 1 (CIB1) Competitor (AID 1508620);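 on activity change, negative = inhibition: GST tagged CIB1 binding a fluorescein labelled alphaIIb integrin peptide tracer; top concentration of the series differs between compounds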
# How it was run: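 CIB1-GST (1 uM final) and compound incubated 15 min at room temperature before adding FITC-alphaIIb peptide tracer (100 nM final). Competition for binding read by fluorescence polarization (ex 480, em 540) after another 15 min at room temperature.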
# [7] = qHTS of pediatric cancer cell lines to identify multiple opportunities for drug repurposing: Primary screen for BT-37 cells (AID 1347094)
# How it was run: (§1)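 Plated cells (500-1,000 per well, growth media) were allowed to settle for 5 hours, treated with compound dilutions for 48 hours, then lysed with CellTiter-Glo for 15 min at room temperature before luminescence reading.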
# [8] = qHTS of pediatric cancer cell lines to identify multiple opportunities for drug repurposing: Primary screen for NB-EBc1 cells (AID 1347095)
# How it was run: as §1
# [9] = qHTS of pediatric cancer cell lines to identify multiple opportunities for drug repurposing: Primary screen for NB1643 cells (AID 1347099); further: nearly all actives have a fitted effect of over 50% in size
# How it was run: as §1
# [10] = qHTS of pediatric cancer cell lines to identify multiple opportunities for drug repurposing: Primary screen for BT-12 cells (AID 1347101); further: nearly all actives have a fitted effect of over 25% in size
# How it was run: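 Cells (500-1,000/well) rested 5 h, then received compounds for 48 h; metabolically active cells were measured by CellTiter-Glo luminescence. Final concentrations spanned up to 46 µM (MIPE, 11-point) or 0.59 nM-46 µM (NPC, 8-point) in primary screens, 11-point in follow-ups.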
# [11] = qHTS of pediatric cancer cell lines to identify multiple opportunities for drug repurposing: Primary screen for Rh41 cells (AID 1347108); further: nearly all actives have a fitted effect of over 70% in size
# How it was run: as §1
# [12] = Primary qHTS for small molecule stabilizers of the endoplasmic reticulum resident proteome: Secreted ER Calcium Modulated Protein (SERCaMP) assay (AID 1508630); conditions: SH-SY5Y GLuc-SERCaMP (Gaussia luciferase released on ER calcium loss) secretion, thapsigargin, luminescence; activity change, negative = inhibition: at 38.4 µM (top of the series) unless noted
# How it was run: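 GLuc-SERCaMP-expressing SH-SY5Y cells, pretreated 16 h with compound, are challenged with thapsigargin to empty ER calcium stores; after 4 h, coelenterazine is added directly to the medium and luminescence is imaged.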
# [13] = A High-Content qHTS Against Drug Library for the Identification of Small Molecules that Inhibit DYT1 Early Onset Primary Dystonia-Associated Cell Pathology (AID 1645839; calls by dose curve)
# How it was run: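 In this high-content image screen, delE TorsinA mislocalization in inducible Flp-In 293 cells is scored as %pathology, with cell count serving as the counterscreen. Compound exposure lasts 48 h under tetracycline induction in reduced-serum medium.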
# UISO = assay: qHTS assay to identify novel small-molecules to repurpose for Merkel cell carcinoma treatment (AID 1296009); conditions: MCC and control cell lines, CellTiter-Glo viability, 72 h; activity change, negative = cytotoxicity: at 46 µM (top of the series); further: nearly all actives have a fitted effect of over 60% in size
# How it was run: (§2)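 After compound transfer in DMSO, plates were kept 72 hr at 37 degree celsius. Luminescent ATP signal from CellTiter-Glo served as viability measure, normalized against DMSO and no-cell controls.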
# WaGa = assay: as above; conditions: MCC and control cell lines, CellTiter-Glo viability, 72 h; series mostly up to 46 µM
# How it was run: as §2
# [14] = qHTS to identify inhibitors of the type 1 interferon - major histocompatibility complex class I in skeletal muscle: primary screen against the NCATS Mechanism Interrogation Plate v5.0 (MIPE) Libary (AID 1347411); conditions: iHSKM cells + IFN-b, HiBiT-tagged MHC-I luminescence, 24 h; activity change, negative = inhibition: at 45.8 µM (top of the series); further: nearly all actives have a fitted effect of over 65% in size
# How it was run: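 Cells were genome-edited human myoblasts carrying a HiBit tag on endogenous HLA-B. They were treated with IFN-beta (4.0 ng/ml) and titrated compounds (top 46 uM) for 24 hrs before lytic HiBiT detection.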
# [15] = target: Cytochrome P450 2C9 (Homo sapiens) (UniProt P11712); assay: Cytochrome P450 family 2 subfamily C member 9 (CYP2C9) small molecule antagonists: luciferase biochemical (cell-free) qHTS assay (AID 1645842; active means well fitted curve in the direction sought with a large enough effect in the repeat runs; inconclusive means weak or mixed curves; inactive means no such curve, though single readings can be large; an effect the other way counts as inactive or inconclusive; further: nearly all actives have a fitted effect of over 55% in size)
# How it was run: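 Luminescence, after 20 min with luciferin detection reagent, reflected CYP2C9 turnover during a 1 h NADPH-driven reaction at 37C. Enzyme-substrate mix contained 0.4% bovine serum albumin and was preincubated with compound 10 min at room temperature.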
# [16] = qHTS assay to identify inhibitors of the type 1 interferon - major histocompatibility complex class I in skeletal muscle: Counter screen cell viability and HiBit confirmation (AID 1347412); conditions: iHSKM muscle cells + IFN-b, HiBiT or CellTiter-Glo, 24 h; further: nearly all actives have a fitted effect of over 60% in size
# How it was run: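 CRISPR HLA-B*08:01-HiBit immortalized human myoblasts (C25cl48) stimulated with 4 ng/ml IFN-beta and compounds (12-point 1:3, top 46 uM final) for 24 h at 37 C. Duplicate plates read by HiBit lytic luminescence or CellTiter Glo ATP.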
# Potency means the concentration at half of the fitted maximal effect; tags describe the fitted curve by direction and shape.
# Sequence of UniProt P10635 (P10635 whole entry, looked up): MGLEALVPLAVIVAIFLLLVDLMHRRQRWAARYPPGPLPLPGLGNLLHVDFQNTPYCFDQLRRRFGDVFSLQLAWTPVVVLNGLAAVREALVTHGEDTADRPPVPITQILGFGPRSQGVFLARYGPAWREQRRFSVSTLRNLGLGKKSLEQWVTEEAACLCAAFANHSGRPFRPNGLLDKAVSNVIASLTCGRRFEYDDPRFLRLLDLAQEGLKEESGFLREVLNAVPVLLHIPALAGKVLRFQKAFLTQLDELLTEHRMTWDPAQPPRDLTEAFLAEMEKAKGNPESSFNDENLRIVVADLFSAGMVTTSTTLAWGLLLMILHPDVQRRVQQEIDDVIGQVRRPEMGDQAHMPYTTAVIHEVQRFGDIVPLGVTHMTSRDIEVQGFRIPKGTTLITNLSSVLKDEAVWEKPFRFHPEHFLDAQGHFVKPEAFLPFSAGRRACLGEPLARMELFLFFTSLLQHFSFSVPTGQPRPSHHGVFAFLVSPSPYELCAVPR
# Sequence of UniProt Q99828 (Q99828 whole entry, looked up): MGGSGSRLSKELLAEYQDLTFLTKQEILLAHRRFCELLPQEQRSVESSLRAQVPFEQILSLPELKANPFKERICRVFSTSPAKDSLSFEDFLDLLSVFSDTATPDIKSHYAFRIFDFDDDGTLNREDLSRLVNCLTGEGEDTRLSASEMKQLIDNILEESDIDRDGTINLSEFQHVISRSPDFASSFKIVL
# Sequence of UniProt P36969 (P36969 whole entry, looked up): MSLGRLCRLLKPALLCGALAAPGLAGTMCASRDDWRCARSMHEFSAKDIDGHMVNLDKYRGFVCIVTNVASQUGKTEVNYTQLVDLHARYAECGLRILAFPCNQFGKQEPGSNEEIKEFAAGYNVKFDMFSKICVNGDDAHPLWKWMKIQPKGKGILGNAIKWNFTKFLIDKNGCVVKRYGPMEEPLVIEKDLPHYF
# Sequence of UniProt P07203 (P07203 whole entry, looked up): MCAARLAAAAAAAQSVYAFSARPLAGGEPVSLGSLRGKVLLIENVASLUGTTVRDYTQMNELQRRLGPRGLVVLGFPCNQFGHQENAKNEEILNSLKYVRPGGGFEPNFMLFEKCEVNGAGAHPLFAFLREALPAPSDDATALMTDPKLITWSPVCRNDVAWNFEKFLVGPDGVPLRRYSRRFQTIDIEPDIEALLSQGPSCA
# Sequence of UniProt P11712 (P11712 whole entry, looked up): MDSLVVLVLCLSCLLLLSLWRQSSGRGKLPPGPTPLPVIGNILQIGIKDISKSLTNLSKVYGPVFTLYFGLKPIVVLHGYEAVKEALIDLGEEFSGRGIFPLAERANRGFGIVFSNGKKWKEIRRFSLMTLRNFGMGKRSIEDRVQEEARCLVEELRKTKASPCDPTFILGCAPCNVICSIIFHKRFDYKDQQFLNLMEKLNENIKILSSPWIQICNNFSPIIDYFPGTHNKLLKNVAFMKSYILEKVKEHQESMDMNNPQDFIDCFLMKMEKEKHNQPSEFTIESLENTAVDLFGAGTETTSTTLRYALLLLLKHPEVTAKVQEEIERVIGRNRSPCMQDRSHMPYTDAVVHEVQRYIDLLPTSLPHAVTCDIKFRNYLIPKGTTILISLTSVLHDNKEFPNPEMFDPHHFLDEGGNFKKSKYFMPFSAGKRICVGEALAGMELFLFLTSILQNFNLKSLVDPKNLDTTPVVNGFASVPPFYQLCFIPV
smiles,measurement,setting,value
CC(=O)O[C@H]1C[C@H](OC(C)=O)[C@]2(C)[C@H](CC[C@@]34O[C@@H]3C3=C(C)C(=O)O[C@@H]3C[C@H]42)C1(C)C,Potency,[1],inactive
same,Potency,[2],inactive
same,Potency,[3],"inconclusive: 13 µM [activator, partial curve, poor fit]"
O=C(Nc1ccccc1)N1CCC(Cc2cnc3ccccc3c2)CC1,Potency,[4],active: 26.8 µM
CCc1cnc(N2CCC(c3nc(COc4ccc(-n5cnnn5)cc4)cs3)CC2)nc1,Potency,[4],inactive
same,Potency,[2],inactive
C=C1CC2[C@@]3(C)C=CC(=O)C(C)(C)C3=C(O)C(=O)[C@@]2(C)C2(C(=O)OC)C(=O)C(C)OC(=O)[C@@]12C (stereo not given in full),Potency,[1],inactive
same,Potency,HeLa,"inconclusive: 20 µM [cytotoxic, single point]"
O=C(O)c1ccc(N2C(=O)/C(=C/c3ccc(-c4ccc([N+](=O)[O-])cc4)o3)C=C2c2ccccc2)cc1,Potency,[5],inactive
same,Potency,[2],"inconclusive: 10.7 µM [inhibitor, partial curve, poor fit]"
same,Potency,[3],"inconclusive: 10.6 µM [activator, partial curve]"
CC(=O)OC[C@]12[C@H](OC(C)=O)C(=O)[C@@H]3[C@@H](O)[C@@]14O[C@@]3(C)COC(=O)c1cccnc1[C@@H](C)[C@H](C)C(=O)O[C@@H]([C@H](O)[C@@H]2OC(C)=O)[C@]4(C)O,Potency,[3],"inconclusive: 7.07 µM [activator, single point]"
C[C@@H]1C[C@@H]2O[C@H]2/C=C\C=C\C(=O)Cc2c(Cl)c(O)cc(O)c2C(=O)O1,Potency,[6],inactive
same,Potency,[3],"inconclusive: 18.5 µM [activator, partial curve, poor fit]"
CN1CCN(CCCN2c3ccccc3Sc3ccc(C(F)(F)F)cc32)CC1,Potency,[7],"inconclusive: 21.9 µM [cytotoxic, single point] and inconclusive: 12.2 µM [cytotoxic, full curve]"
same,Potency,[8],"inconclusive: 16.8 µM [cytotoxic, partial curve] and inconclusive: 33.2 µM [cytotoxic, single point]"
same,Potency,[9],"inconclusive: 29.9 µM [cytotoxic, single point]"
same,Potency,[10],active: 24.6 µM and active: 21.7 µM
same,Potency,[11],"inconclusive: 15 µM [cytotoxic, partial curve]"
same,Potency,[12],"inconclusive: 28.2 µM [inhibitor, single point] and inconclusive: 11.2 µM [inhibitor, partial curve, poor fit] and inconclusive: 10 µM [inhibitor, single point]"
same,Potency,[13],"inconclusive: 10 µM [inhibitor, partial curve]"
same,Potency,UISO,"inconclusive: 23.7 µM [inhibitor, single point]"
same,Potency,WaGa,"inconclusive: 26.6 µM [inhibitor, single point]"
COc1ccc(C(=O)C2CCN(CC(=O)N(Cc3nc4c(c(=O)[nH]3)COCC4)CC3CC3)CC2)cc1,Potency,[14],inactive
O=C(Cc1ccc(Cl)cc1)Nc1cnccc1C(=O)O,Potency,[2],active: 9.53 µM
O=C(O)CSc1cc(NS(=O)(=O)c2ccc(Br)cc2)c2ccccc2c1O,Potency,[6],active: 44.7 µM
same,Potency,[5],"inconclusive: 32.1 µM [inhibitor, single point]"
same,Potency,[2],"inconclusive: 23.9 µM [inhibitor, partial curve, poor fit]"
same,Potency,[3],active: 5.32 µM
same,Potency,HeLa,"inconclusive: 39.8 µM [cytotoxic, single point]"
CC(C)c1cc(CNc2nc(Nc3cc(C4CC4)[nH]n3)cc(N3CCN(C)CC3)n2)on1,Potency,[14],active: 0.523 µM
same,Potency,[15],"inconclusive: 19 µM [inhibitor, partial curve]"
same,Potency,[3],"inconclusive: 37.7 µM [activator, partial curve, poor fit]"
same,Potency,[16]; HiBiT,active: 1.98 µM
O=C(CN1C2=NCCN2c2ccccc21)c1ccc(-c2ccccc2)cc1,Potency,[15],"inconclusive: 33.8 µM [inhibitor, single point]"
same,Potency,HeLa,inactive
O=C(NCCCc1ccccc1)c1cccc(-c2cc(O)c3ncccc3c2)c1,Potency,HeLa,"inconclusive: 3.55 µM [cytotoxic, partial curve, poor fit]"
C=C1C(=O)O[C@@H]2[C@H]3C(C)=CC(=O)C3=C(C)[C@@H](OC(=O)/C(C)=C\C)[C@H](O)[C@@H]12,Potency,[6],"inconclusive: 3.55 µM [inhibitor, full curve]"
same,Potency,[2],active: 9.31 µM
CCN1CCN(Cc2ccc(NC(=O)c3ccc(C)c(/C=C/c4cnc5[nH]ccc5c4OC)c3)cc2C(F)(F)F)CC1,Potency,[5],inactive
same,Potency,[16]; Viability,active: 14 µM
CN1CCC(Nc2nc(Nc3ccc(Oc4ccccc4)cc3)c3c(=O)[nH]cc(Br)c3n2)CC1,Potency,HeLa,"inconclusive: 3.16 µM [cytotoxic, partial curve]"
O=C(NCc1cccc(O)c1)c1cc2cc(F)ccc2[nH]1,Potency,[4],"inconclusive: 26.8 µM [inhibitor, single point]"
Nc1ccc(/C=C/C(=O)NCc2cc3cc(-c4ccc(C(=O)N5CCC(F)(F)CC5)cc4)cc(-c4ccc(F)cc4)c3o2)cn1,Potency,[1],"inconclusive: 28.6 µM [inhibitor, partial curve, poor fit]"
same,Potency,HeLa,active: 4.47 µM
